The record followed here is article PMC7819943, “Rice protein-binding microarrays: a tool to detect cis-acting elements near promoter regions in rice”.

The other results are listed elsewhere or left out.

The target of this assay is T1, OsWOX13 (Oryza sativa, UniProt Q5QMM3 1-267).
T1 sequence: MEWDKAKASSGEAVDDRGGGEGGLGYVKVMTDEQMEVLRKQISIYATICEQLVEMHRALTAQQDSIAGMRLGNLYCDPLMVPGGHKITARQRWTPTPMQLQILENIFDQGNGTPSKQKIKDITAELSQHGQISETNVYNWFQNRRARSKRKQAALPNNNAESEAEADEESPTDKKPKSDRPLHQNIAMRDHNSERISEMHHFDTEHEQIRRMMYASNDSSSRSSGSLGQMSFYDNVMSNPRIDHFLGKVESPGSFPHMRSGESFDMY
In words: protein-binding microarray (RPBM); PBS, 2% BSA, 51.3 ng/ul salmon testes DNA, 50 uM zinc acetate, 200 nM TF, 25 C, 1 h; high values mean tight binding. Particulars: protein: recombinant; tags: N-terminal polyhistidine and DsRed monomer fusion (pET32a); label: CyDye5-dUTP incorporated in the synthesized complementary strand; 3' TTTTT single-stranded linker to array surface; dsDNA, one strand shown. The gist of the method:
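An Axon 4000B scanner gave the binding signal as per-feature fluorescence intensity in arbitrary units. This followed washing of a custom Agilent array that had been incubated for 1 h at 25 °C with 200 nM protein in PBS, 2% BSA, salmon testes DNA and 50 µM zinc acetate. The proteins were transcription factors fused at the N-terminus to polyhistidine and DsRed, expressed in E. coli BL21-CodonPlus and purified on Ni–NTA.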
Consider “GTGATAATGTGATGAAAGCACTTATCATGACAAACTTGGCCGGAGTCACCTAGTGCAG”, for which the binding signal was 5950 fluorescence intensity (a.u.).

Turning to “GCTGATTTTAACACATGCCTTAGCTGATTTAACAACCGCCCGGAGTCACCTAGTGCAG”, the binding signal was 21700 fluorescence intensity (a.u.).

On to “CTATGATTAGCCATAAGTGCTACAGTAATCCACATGTGCTCGGAGTCACCTAGTGCAG”, for which the binding signal was 36200 fluorescence intensity (a.u.).

On to “GTACTTTTCCATCACATCACTCTGTCATATACACAATTTTCGGAGTCACCTAGTGCAG”, for which the binding signal was 4740 fluorescence intensity (a.u.).

As to “TTGATTGCCTCAGGTGGTCCGGACACCGTCTCAACATCCACGGAGTCACCTAGTGCAG”, the binding signal was 17700 fluorescence intensity (a.u.).

With “GATGCAAATTGCTTTAAATGGGCTCGGAAACACGATCTCGCGGAGTCACCTAGTGCAG”, the binding signal was 14600 fluorescence intensity (a.u.).

For “TCCTAGCTAGGCTGATTGATCCAAGCTAGCTTCGTCGTACCGGAGTCACCTAGTGCAG”, the binding signal is 11800 fluorescence intensity (a.u.).

Consider “TTTTGATAGCTAAAGGAGTCGATATACCCGGTTTTATAGTCGGAGTCACCTAGTGCAG”, for which the binding signal is 3500 fluorescence intensity (a.u.).

For “ATAAAATTAGTTATTTTATTTATATCCGGAAACTCTTTCGCGGAGTCACCTAGTGCAG”, the binding signal was 13200 fluorescence intensity (a.u.).

In the case of “TATTGTCTAATTGGCATAGCTGCCAATCTGTTATTGCTCACGGAGTCACCTAGTGCAG”, the binding signal was 19400 fluorescence intensity (a.u.).

Consider “CCTACGCCTAATTGATCCTCCATTATCGTCGTCGTCGTCGCGGAGTCACCTAGTGCAG”, for which the binding signal is 35600 fluorescence intensity (a.u.).

As to “ATCTACTATTACTAGCTGCTAATTAACAACGCACTAACTACGGAGTCACCTAGTGCAG”, the binding signal was 4070 fluorescence intensity (a.u.).

With “AAACCATTAGCGCATAATTTATTGAGTTTTAATTATTTCACGGAGTCACCTAGTGCAG”, the binding signal is 6070 fluorescence intensity (a.u.).

Turning to “TAAATAGATTTGCTATGCTACTTGCTATAGAAAATCAGTCCGGAGTCACCTAGTGCAG”, the binding signal was 21000 fluorescence intensity (a.u.).

In the case of “ACTTTGACTAAATTATCACATCATATTTAACAATAAATTTCGGAGTCACCTAGTGCAG”, the binding signal is 11000 fluorescence intensity (a.u.).

“TCCGAAATTGTTGTAATCGATCTGGGTCAGCAGTTCTGCTCGGAGTCACCTAGTGCAG”: the binding signal is 5720 fluorescence intensity (a.u.).

On to “AAAACTAATTATGCAATCCATCGGTAAACCGCAAGATGAACGGAGTCACCTAGTGCAG”, for which the binding signal is 13800 fluorescence intensity (a.u.).

As for “GTAAAATTAGCAGTTAGAAATCCGGCTTACGTGTAGACTGCGGAGTCACCTAGTGCAG”, the binding signal was 14000 fluorescence intensity (a.u.).

“CGTCAAATTCTAATTAATCGTCCGCATAACAACTAATCATCGGAGTCACCTAGTGCAG”: the binding signal was 9950 fluorescence intensity (a.u.).

With “ATAGTAATCAATGGGCATCTTAGTCATCATGCCATACCTACGGAGTCACCTAGTGCAG”, the binding signal was 3420 fluorescence intensity (a.u.).

As for “GGGTGATCAAATTTGTTTACTCCAAGTTGGTTAATTAGGGCGGAGTCACCTAGTGCAG”, the binding signal is 8940 fluorescence intensity (a.u.).

Take “TATGGAGCTAAAGCCCAGCCAAACAGTTTCAACTCCACCTCGGAGTCACCTAGTGCAG”: the binding signal was 6520 fluorescence intensity (a.u.).

For “TGTTTGATTTGTATGGATATGACGATCTAATTTCTTATTTCGGAGTCACCTAGTGCAG”, the binding signal was 16200 fluorescence intensity (a.u.).

On to “GAATGTTGTAATTACTCCCTCAGTCTTAATATGTAGCAACCGGAGTCACCTAGTGCAG”, for which the binding signal is 7830 fluorescence intensity (a.u.).

In the case of “AATGTCCTGGGAAGTGATTGGTGGAATATTTCTGATCATGCGGAGTCACCTAGTGCAG”, the binding signal was 10000 fluorescence intensity (a.u.).

Turning to “GTGATTGTATTCTCTCCTTGTGGTAGCTAGTAGTTCACATCGGAGTCACCTAGTGCAG”, the binding signal is 6890 fluorescence intensity (a.u.).

On to “CTATCATATTGACAGCTTTGTAATTGCTTTTGACAGGTTCCGGAGTCACCTAGTGCAG”, for which the binding signal was 26400 fluorescence intensity (a.u.).

Regarding “GTAGCAGCATAGAATTTTCATCAATCATATTCAAATACTCCGGAGTCACCTAGTGCAG”, the binding signal was 3280 fluorescence intensity (a.u.).

On to “CAGTTAACGCCATAGATAAATTGGAAGCAAATAAAAGTACCGGAGTCACCTAGTGCAG”, for which the binding signal is 3280 fluorescence intensity (a.u.).

As for “CAGAAAGATTGGTAATACTGTTACTGTTTTCGAGTGTCGACGGAGTCACCTAGTGCAG”, the binding signal was 21600 fluorescence intensity (a.u.).

For “ATCAATCACGTCGCCTTACCTAGCTAGCTACCTAGCTGGTCGGAGTCACCTAGTGCAG”, the binding signal is 10800 fluorescence intensity (a.u.).

“ATGGATGATTGAACAACAATAGAGAATAAGGGAAAGGGTTCGGAGTCACCTAGTGCAG”: the binding signal was 26400 fluorescence intensity (a.u.).

Regarding “TGCATCCATCTGCCAAAGATTTTCCAATCAATACATTGCCCGGAGTCACCTAGTGCAG”, the binding signal was 3530 fluorescence intensity (a.u.).

Consider “AAATAAGAAATAATTGATGTGATAATTATTAGGCCCCGCCCGGAGTCACCTAGTGCAG”, for which the binding signal was 30200 fluorescence intensity (a.u.).

For “CCTGACTACTCTGATTGTCATGCCAACAACTTGGCTTCGCCGGAGTCACCTAGTGCAG”, the binding signal was 14500 fluorescence intensity (a.u.).

On to “CATTGATGGACTGGTCTCATGCAATTCTCCCAGCTCCACCCGGAGTCACCTAGTGCAG”, for which the binding signal was 32600 fluorescence intensity (a.u.).

As for “AAGTATTGTAATTTCGGTGGATTAAGCTGATTTGTTGCTACGGAGTCACCTAGTGCAG”, the binding signal is 4450 fluorescence intensity (a.u.).

For the sequence “CTGTTAATTTATATACTATACAATAATGTTATAGTATTGCCGGAGTCACCTAGTGCAG”, the binding signal is 34900 fluorescence intensity (a.u.).

As for “AGTTTGAAAATTTAAATTTTAACTTTTAACTTTAACTCGTCGGAGTCACCTAGTGCAG”, the binding signal was 9590 fluorescence intensity (a.u.).

As to “GTGACAGGCTGATTGCTACCTTGCTTGGCGATCTGTGCTTCGGAGTCACCTAGTGCAG”, the binding signal was 26400 fluorescence intensity (a.u.).

Turning to “GAAAGTAACTGAGATTATCGATGATATGAACATGTACATCCGGAGTCACCTAGTGCAG”, the binding signal was 3710 fluorescence intensity (a.u.).

Regarding “ATCACTTCATTATCACATGACAGACCAACATATAATGATGCGGAGTCACCTAGTGCAG”, the binding signal was 5210 fluorescence intensity (a.u.).

Take “ACTCTAATTAATCCCACTTCCTCTGTTTCCTCTGCATGCGCGGAGTCACCTAGTGCAG”: the binding signal is 17700 fluorescence intensity (a.u.).

On to “AAAGATTGATAAATGGAGCGAATGGGTATGAAGTGGTGTTCGGAGTCACCTAGTGCAG”, for which the binding signal is 25300 fluorescence intensity (a.u.).

For “ACGTATATTCACAATTAAATGTGTTTCTTTCATTGTAACACGGAGTCACCTAGTGCAG”, the binding signal is 3330 fluorescence intensity (a.u.).

Regarding “TTGTTTGATTTGTTAGGGGTGGTAAGAGCAGCCTTGTATTCGGAGTCACCTAGTGCAG”, the binding signal was 21000 fluorescence intensity (a.u.).

On to “ACTAAACTGATAATATTTTCAAGCTATACAAATAAACTAGCGGAGTCACCTAGTGCAG”, for which the binding signal is 22200 fluorescence intensity (a.u.).

In the case of “GCTGTTAATAGGATTTACAATCCGGTGGAAACCGGACCAACGGAGTCACCTAGTGCAG”, the binding signal was 3240 fluorescence intensity (a.u.).

In the case of “CGTAATTTTGGTATTTACATATGTAATGTAATTTTAAGACCGGAGTCACCTAGTGCAG”, the binding signal was 25700 fluorescence intensity (a.u.).

“TTAATTGGTTAAATGATCTTTGTGACTTTAAAATTATTTCCGGAGTCACCTAGTGCAG”: the binding signal was 22900 fluorescence intensity (a.u.).

Regarding “ATCCAGATTATAATAATCTTAAGCTGAATTAAACAGGCCTCGGAGTCACCTAGTGCAG”, the binding signal was 6350 fluorescence intensity (a.u.).

On to “GTTTGGCTAATGGGATAGGGAATTGAATTCCCACCCACCACGGAGTCACCTAGTGCAG”, for which the binding signal is 4880 fluorescence intensity (a.u.).

On to “CATCATATCGTTCCAATTTCAATCAAACTTTCAATTTTAGCGGAGTCACCTAGTGCAG”, for which the binding signal is 4800 fluorescence intensity (a.u.).

“TGCTCCATGATTTGTCAAGGTGGAGGACACTGATTCGTTTCGGAGTCACCTAGTGCAG”: the binding signal was 4200 fluorescence intensity (a.u.).
